{
  "source": "PubChem BioAssay AID504333",
  "about": "(National Center for Advancing Translational Sciences (NCATS), 2011)",
  "note": "Out of some 360,000 compounds screened, about 16,000 (4.4%) were called active. Inconclusive results, whose numbers are uncertain, are shown with a selection of clear calls. Calls come from the whole dose curve; as a rule, active = well fitted inhibition curve with a large enough effect; inconclusive = small, poorly fitted or top-dose-only effect; inactive = no such curve, though single readings can be large or run the other way. Potencies of inconclusive entries are doubtful fits and often do not repeat. Potency is the fitted concentration of half-maximal effect; tags give direction and shape of the fitted curve.",
  "data": [
    {"target": "Bromodomain adjacent to zinc finger domain protein 2B (Homo sapiens) (UniProt Q9UIF8)", "sequence (Q9UIF8 whole entry, looked up, the tested form may be a part)": "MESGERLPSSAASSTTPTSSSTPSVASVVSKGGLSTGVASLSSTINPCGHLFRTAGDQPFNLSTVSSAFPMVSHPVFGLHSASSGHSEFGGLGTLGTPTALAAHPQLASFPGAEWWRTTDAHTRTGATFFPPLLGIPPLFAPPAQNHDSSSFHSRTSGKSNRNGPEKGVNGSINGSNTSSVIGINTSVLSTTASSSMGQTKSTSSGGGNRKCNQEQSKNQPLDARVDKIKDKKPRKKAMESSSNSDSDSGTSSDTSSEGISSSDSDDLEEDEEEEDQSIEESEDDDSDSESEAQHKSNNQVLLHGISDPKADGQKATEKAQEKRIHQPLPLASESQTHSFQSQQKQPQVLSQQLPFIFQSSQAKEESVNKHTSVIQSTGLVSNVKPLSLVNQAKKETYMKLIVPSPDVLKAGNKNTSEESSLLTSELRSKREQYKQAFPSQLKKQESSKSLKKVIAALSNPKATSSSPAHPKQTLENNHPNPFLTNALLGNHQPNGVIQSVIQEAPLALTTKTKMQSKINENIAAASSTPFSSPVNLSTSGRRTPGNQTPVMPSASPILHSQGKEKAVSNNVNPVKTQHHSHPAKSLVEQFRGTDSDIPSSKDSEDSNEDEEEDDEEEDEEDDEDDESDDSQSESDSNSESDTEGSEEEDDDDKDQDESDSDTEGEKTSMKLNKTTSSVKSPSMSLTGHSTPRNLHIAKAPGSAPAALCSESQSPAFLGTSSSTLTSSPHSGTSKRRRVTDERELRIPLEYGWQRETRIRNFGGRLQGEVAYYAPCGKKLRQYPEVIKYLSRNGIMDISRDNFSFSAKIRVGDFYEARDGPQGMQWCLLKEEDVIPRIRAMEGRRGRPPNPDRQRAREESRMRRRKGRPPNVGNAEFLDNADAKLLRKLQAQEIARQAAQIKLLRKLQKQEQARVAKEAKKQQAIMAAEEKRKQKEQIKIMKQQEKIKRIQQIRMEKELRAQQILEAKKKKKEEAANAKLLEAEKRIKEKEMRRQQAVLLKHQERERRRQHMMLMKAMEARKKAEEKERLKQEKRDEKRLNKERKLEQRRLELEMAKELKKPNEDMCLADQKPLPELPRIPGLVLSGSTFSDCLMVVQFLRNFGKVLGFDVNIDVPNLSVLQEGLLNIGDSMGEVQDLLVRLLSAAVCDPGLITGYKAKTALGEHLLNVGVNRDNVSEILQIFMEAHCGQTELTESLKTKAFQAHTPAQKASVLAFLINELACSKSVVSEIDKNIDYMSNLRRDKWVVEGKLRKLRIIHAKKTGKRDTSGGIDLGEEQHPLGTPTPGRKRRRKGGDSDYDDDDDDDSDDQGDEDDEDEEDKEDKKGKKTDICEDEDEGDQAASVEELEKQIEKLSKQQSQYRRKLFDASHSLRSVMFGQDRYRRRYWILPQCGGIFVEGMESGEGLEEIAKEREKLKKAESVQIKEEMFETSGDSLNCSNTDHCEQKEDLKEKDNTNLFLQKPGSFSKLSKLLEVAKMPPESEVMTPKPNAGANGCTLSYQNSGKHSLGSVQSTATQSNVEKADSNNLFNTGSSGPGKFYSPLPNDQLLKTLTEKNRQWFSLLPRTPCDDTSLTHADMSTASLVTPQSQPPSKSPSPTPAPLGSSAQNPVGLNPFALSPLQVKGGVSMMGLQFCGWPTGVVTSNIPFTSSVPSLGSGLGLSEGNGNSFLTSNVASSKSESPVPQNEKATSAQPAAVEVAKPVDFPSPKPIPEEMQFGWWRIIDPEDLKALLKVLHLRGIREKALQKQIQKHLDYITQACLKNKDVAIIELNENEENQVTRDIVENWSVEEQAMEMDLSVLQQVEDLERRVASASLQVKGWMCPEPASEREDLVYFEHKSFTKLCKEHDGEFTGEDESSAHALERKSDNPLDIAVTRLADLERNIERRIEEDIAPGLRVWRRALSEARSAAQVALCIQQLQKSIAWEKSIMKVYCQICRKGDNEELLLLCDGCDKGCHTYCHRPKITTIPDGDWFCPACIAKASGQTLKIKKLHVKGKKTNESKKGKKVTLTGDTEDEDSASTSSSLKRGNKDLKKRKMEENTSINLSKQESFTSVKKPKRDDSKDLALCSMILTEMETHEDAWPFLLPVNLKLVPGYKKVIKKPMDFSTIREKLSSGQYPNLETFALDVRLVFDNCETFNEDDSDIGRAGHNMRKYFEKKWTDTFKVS", "experiment": "qHTS Assay for Inhibitors of BAZ2B; note: nearly all actives have a fitted effect of over 60% in size", "conditions": "AlphaScreen BAZ2B-H3K14Ac peptide displacement; series mostly up to 114 µM", "procedure,_shortened": "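AlphaScreen displacement: compounds (up to 110uM) incubated 30 min at room temperature with a preformed 50 nM BAZ2B/50 nM biotinylated H3K14Ac peptide complex in PBS pH 7.4 with Tween-20. Donor and acceptor beads at 10 ug/mL final added, 20 min light-protected before reading.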", "values": [
      {"smiles": "CSCCC(NS(=O)(=O)/C=C/c1ccccc1)C(=O)NCCc1ccc(S(N)(=O)=O)cc1", "note": "(centres undefined)", "Potency": "inactive"},
      {"smiles": "COc1ccc(NCC(=O)N/N=C2\\CCc3ccccc32)cc1", "Potency": "inconclusive: 39.8 µM [inhibitor, partial curve]"},
      {"smiles": "c1ccc(-c2ccc(CN3CCSCC3)cc2)cc1", "Potency": "inconclusive: 89.1 µM [inhibitor, single point]"},
      {"smiles": "Cc1ccc(C)c(N2CCN(C(=O)CN3C(=O)c4ccccc4C3=O)CC2)c1", "Potency": "inconclusive: 100 µM [inhibitor, single point]"},
      {"smiles": "COc1ccc(CNC(=O)c2cnn(-c3ccc(C)cc3)c2-n2cccc2)cc1OC", "Potency": "inconclusive: 79.4 µM [inhibitor, single point]"},
      {"smiles": "CS(=O)(=O)c1ccc2c(c1)SC1=NC(=O)/C(=C/c3ccco3)C(=N)N12", "Potency": "active: 50.1 µM"},
      {"smiles": "Cc1ncc(CO)c(CNc2ccc(Oc3ccccc3)cc2)c1O", "Potency": "inconclusive: 44.7 µM [inhibitor, partial curve]"},
      {"smiles": "CC(=O)c1c(C)[nH]c(C(=O)N2CCc3ccccc32)c1C", "Potency": "inconclusive: 70.8 µM [inhibitor, partial curve]"},
      {"smiles": "Cc1ccc(NC(=S)N(CCCN2CCC(C)CC2)Cc2ccco2)cc1C", "Potency": "inconclusive: 79.4 µM [inhibitor, single point]"},
      {"smiles": "O=c1[nH]cnc2c1N1CCC2CC1", "Potency": "inconclusive: 89.1 µM [inhibitor, single point]"},
      {"smiles": "Cc1cccc(C(C)C)c1NC(=O)c1c(-c2ccccc2)noc1C", "Potency": "inactive"},
      {"smiles": "Cc1nn(C)c2c1c(-c1ccccc1)cc(=O)n2Cc1ccc(Cl)cc1", "Potency": "inactive"},
      {"smiles": "O=C(O)c1ccc(Cn2c(SCc3cc(=O)n4cc(Br)ccc4n3)nc3ccsc3c2=O)cc1", "Potency": "inconclusive: 89.1 µM [inhibitor, single point]"},
      {"smiles": "O=C(Nc1ccc2c(c1)OCO2)C1CC(=O)N(c2ccc3c(c2)OCCO3)C1", "note": "(centres undefined)", "Potency": "inconclusive: 79.4 µM [inhibitor, single point]"},
      {"smiles": "COc1ccc([N+](=O)[O-])cc1NCc1cccnc1", "Potency": "inconclusive: 89.1 µM [inhibitor, single point]"},
      {"smiles": "CCOc1ccc(NC(=S)NC(C)C(c2ccccc2)N2CCN(C)CC2)cc1", "note": "(centres undefined)", "Potency": "inconclusive: 35.5 µM [inhibitor, partial curve, poor fit]"},
      {"smiles": "CC1CCCCN1C(=O)c1ccc(COc2ccc([N+](=O)[O-])cc2)o1", "note": "(centres undefined)", "Potency": "inconclusive: 79.4 µM [inhibitor, single point]"},
      {"smiles": "O=C1Nc2ccccc2/C1=N\\N=C\\C1=C(N2CCOCC2)C(=C\\c2ccccc2)/CC1", "Potency": "active: 7.08 µM"},
      {"smiles": "O=C(Nc1cccc(Cl)c1)Nc1csc([N+](=O)[O-])c1", "Potency": "inconclusive: 39.8 µM [inhibitor, partial curve]"}
    ]}
  ]
}
